# Data from the supplement of paper PMC10338343.
# ± gives the standard deviation. Only a part is listed here, and it is no random draw.
# Test system: MIWI (PIWIL1) piRISC loaded with L1MC piRNA (30 nt)
# Assay: pre-steady-state target cleavage rate (min^-1); MIWI and MILI are mouse PIWI proteins and EfPiwi is from a freshwater sponge; tags in brackets are library labels; higher = faster piRNA-guided slicing of the target
# Conditions: guide: L1MC piRNA 5'p-UAACUAAAUACUAUGCAAGCUGUAGGUCCU; auxiliary factor: 500 nM mouse GTSF1
# Outline: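 For Cleave-'n-Seq, a transcribed, DNA-blocked target RNA library […] met 1 nM active affinity-purified piRISC with one synthetic guide at 33 °C for 0–8 or 0–960 min in HEPES–potassium acetate buffer, with or without 500 nM GTSF1 partner protein. Uncleaved targets were sequenced and normalised to depth and weakly complementary targets, with three trials pooled and k3 capped at 0.0001 min^-1. A burst-and-steady-state fit supplied the pre-steady-state cleavage rate.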
# 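Further: 1 nM active piRISC with 0.1 nM target library at 33 °C single turnover.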
row,Sequence,pre-steady-state target cleavage rate
1,UCCUGCUACAGCUUGCAUUGUAUUUAGAAA,0.262 ± 0.039
2,UCCUGGAUGUCGAAGCAUAGUAUUUACUUA,0.00463 ± 0.0029
3,UCCUGGAUGUGGAUGCAUAGUAUUUAGUUA,0.00806 ± 0.0026
4,UCCACCUACAGCUUGCAUAGAUUUUAGUAA,0.13 ± 0.03
5,UCCUGGUACAGCUUGCAUAGAUUUUAGUAA,0.0252 ± 0.015
6,UCGACCUACACGUUGCAUAGUAUUUACAAA,0.256 ± 0.027
7,UCCACCUACAGCAUCCAUAGUAUUUAGUUA,0.169 ± 0.038
8,UCCACCUACAGCAUGCAUAGUAUUUACAAA,0.375 ± 0.058
9,UCCUCCAACAGCUUGCAUAGUAUUUUCAAA,0.28 ± 0.035
10,AGGACCUACAGCUUGCAUAGUUUUUUCAAA,0.264 ± 0.053
11,UCGACCUACAGCUUGCUAGUAUUUAGUUA,0.219 ± 0.061
12,UCCACCUACAGCUUGGUAAGUAUUUAGUAA,0.0391 ± 0.013
13,UCCUGGAUGUCGUUUCAUAGUAUUUAGUUA,0.0189 ± 0.0048
14,UCCUCCUUGAGCUUGCAUAGUAUUUUCAAA,0.11 ± 0.02
15,UGGACCUACAGCAAGCAUAGUAUUUACAAA,0.273 ± 0.051
16,UCCUGGAACAGCUUGGUUAGUAUUUACAAA,0.0339 ± 0.014
17,UCCUGGAUGUCGAACGUAUGGUAUUUAGUUA,< 0.0001
18,UCCUGGAUGAGCUUGGAAAGUAUUUAGUUA,0.218 ± 0.019
19,UCGACCUACAGCUUCCAUAGUAUAUAGUUA,0.046 ± 0.016

row,Sequence,pre-steady-state target cleavage rate
1,UCCUCCUACAGCUUCGUUAGUAUUUAGUUA,0.0754 ± 0.0086
2,UCCUCCUACAGCUUCCAUAGUAUUUUGUUA,0.0326 ± 0.013
3,UCCUCCUACAGCUUGCAUUCUAUUUACAAA,0.0407 ± 0.014
4,UCGACCUACAGCUUGCAUAGUUAUUUCAAA,0.269 ± 0.08
5,UCCUGGAUGUCCUUGCAUACUUUUUAGUUA,0.00472 ± 0.0041
6,AGGACCUACAGCUUGCAUAGUUAAUACAAA,0.199 ± 0.057
7,UCCUGCUACAGCUUCGAUAGUAUUUAGAAA,0.0608 ± 0.015
8,UCCUGGUACAGCUUGCAUACUAUUUUCAAA,0.0442 ± 0.014
9,UCCUGGAUGUCGAUGGCAUAGUAUUUAGUUA,0.00605 ± 0.0041
10,UCCUGCUACAGCUUGCUAUGUAUUUAGAAA,0.0154 ± 0.0069
11,UCGACCUACAGCUUCCAAAGUAUUUAGUUA,0.436 ± 0.024
12,UCCACCUACAGCUUGGUUAGUAUUUACAAA,0.0513 ± 0.013
13,UGGACCUUGUGCUUGCAUAGUAUUUUCAAA,0.0114 ± 0.0026
14,UCGACCUACAGCUUGCAUAUAUUUAGUUA,0.489 ± 0.044
15,UCCUGGAACUCGUUGCAUAGUAUUUAGAAA,0.0103 ± 0.0043
16,UCCUGGAUGUCGAACGUAACUAUUUACUUA,< 0.0001
17,UCCUGGAUGUGCUUGCAUAGUAUUUUCUAA,0.00784 ± 0.0038
18,UCCUCCUACAGCUUGGAUAGUAUUUACAAA,0.0583 ± 0.015

# Same assay, conditions: guide: L1MC piRNA 5'p-UAACUAAAUACUAUGCAAGCUGUAGGUCCU; auxiliary factor: none (no GTSF1)
row,Sequence,pre-steady-state target cleavage rate
1,UCCUGGAUGUCGAACCAUACUAUUUACUUA,< 0.0001
2,UCCUGGAUGUCGAACGUAAGUAUUUACUAA,< 0.0001
3,AGGAUCCUACAGCUUGCAUAGUAUUUAGUUA,0.118 ± 0.023
